The nature of the test: qHTS Assay for Lipid Storage Modulators (AID 1519). The following applies: Drosophila S3 cells, BODIPY lipid droplet/cell ratio, laser cytometry, cells loaded with oleic acid. The procedure, abridged: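 Cells seeded at 5,000 per well were treated with compounds over a concentration series and loaded with oleic acid (400 uM, as added). Lipid droplet fluorescence (488 nm excitation, 500-530 nm channel) was read by laser-scanning cytometry and normalized to 20 uM Triacsin C.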

Where [1] appears, read: measured here: cell count channel max response.
Where [2] appears, read: measured here: cell number channel AC50.
Setting [3] is: measured here: lipid (BODIPY) channel AC50.
Where [4] appears, read: measured here: lipid channel max response.

The text below walks through data of PubChem BioAssay (NCATS).

This is one part of the list. These are further read-outs of the screen, such as a control signal, another cell line or another target. No call is given for them. The list favours compounds with an active or inconclusive main result. Words in brackets tell the shape of the fitted curve; partial curves, single points and poor fits give uncertain potencies.
Tags give direction and shape of the fitted curve.

By AC50 is commonly meant the midpoint of the concentration-response curve, whichever way the signal moves. For the compound `O=C(O)CC[C@@H](C(=O)O)N1C(=O)c2ccccc2C1=O`, the max response is, setting by setting: under setting [1], 9.95%; under setting [4], 8.36%. Also, the AC50 was 7.08 µM [falling, single point] under setting [2] and 6.31 µM [falling, single point] under setting [3].
Consider `Cc1nc2cncnc2n(-c2ccccc2)c1=O`, for which the max response under setting [1] was determined as 31.3% and the max response under setting [4] is 41.8%. For the same compound, the concentration at half-maximal activity (AC50) was 4.47 µM [rising, full curve, poor fit] under setting [2] and 7.08 µM [rising, partial curve, poor fit] under setting [3].
Turning to `C[C@@]1(C(=O)O)NCCc2cc(O)c(O)cc21`, the max response runs as follows: under setting [1], 39.5%; under setting [4], 51.6%. Moreover, the AC50 under setting [2] was 6.31 µM [rising, full curve, poor fit] and the concentration at half-maximal activity (AC50) under setting [3] is 11.2 µM [rising, partial curve, poor fit].
As to `CN(C)c1ncc2nc(CCc3ccccc3)c(=O)n(-c3ccccc3)c2n1`, the max response is, setting by setting: under setting [1], 19.4%; under setting [4], 23.6%. Besides, the AC50 was 2.82 µM [rising, partial curve] under setting [2] and 2.24 µM [rising, partial curve] under setting [3].
For `CC(N)=NCc1cccc(CN)c1`, the max response runs as follows: under setting [1], 73.7%; under setting [4], 76.3%. Moreover, the AC50 is 7.08 µM [falling, full curve, poor fit] under setting [2] and 7.08 µM [falling, full curve, poor fit] under setting [3].
Take `COCCn1c(=O)c(-c2cc(F)cc(F)c2)nc2cnc(Nc3cccc(OC)c3)nc21`: the max response under setting [1] is 32.9% and the max response under setting [4] was 21.7%. Moreover, the concentration at half-maximal activity (AC50) was 1.78 µM [rising, partial curve, poor fit] under setting [2] and 0.0224 µM [rising, full curve, poor fit] under setting [3].
With `O=c1c(-c2cc(F)cc(F)c2)nc2cnc(N3CCNCC3)nc2n1CCc1ccccc1`, the max response came to 17.6% under setting [1] and 19.3% under setting [4]. Moreover, the AC50 runs as follows: under setting [2], 3.55 µM [rising, partial curve, poor fit]; under setting [3], 3.16 µM [rising, partial curve, poor fit].
As for `COc1ccccc1-c1cc(Nc2ccn[nH]2)ncn1`, the max response was determined as 28.6% under setting [1] and 38.9% under setting [4]. The half-maximal activity concentration (AC50) by setting is: under setting [2], 1.58 µM [rising, full curve, poor fit]; under setting [3], 1.41 µM [rising, full curve, poor fit].
Take `N#C[C@H](Cc1ccc(O)cc1)c1ccc(O)cc1`: the max response by setting is: under setting [1], 39%; under setting [4], 49.3%. Further, the AC50 runs as follows: under setting [2], 8.91 µM [rising, full curve, poor fit]; under setting [3], 8.91 µM [rising, full curve, poor fit].
For `CCCCC#Cc1nc(NC)c2ncn([C@@H]3O[C@@H](CO)[C@H](O)[C@H]3O)c2n1`, the max response was 46.5% under setting [1] and 63.2% under setting [4]. Further, the concentration at half-maximal activity (AC50) reads like this: under setting [2], 14.1 µM [rising, partial curve, poor fit]; under setting [3], 25.1 µM [rising, partial curve, poor fit].
On to `CN(C)c1ncc2nc(-c3cc(F)cc(F)c3)c(=O)n(-c3ccccc3)c2n1`, for which the max response turned out to be 34.6% under setting [1] and 27.9% under setting [4]. The half-maximal activity concentration (AC50) was 8.91 µM [rising, partial curve, poor fit] under setting [2] and 3.16 µM [rising, full curve, poor fit] under setting [3].
On to `c1ccc2c(N3CCOCC3)nc(-c3ccoc3)nc2c1`, for which the max response under setting [1] worked out at 27.5% and the max response under setting [4] turned out to be 35.2%. For the same compound, the half-maximal activity concentration (AC50) under setting [2] is 3.16 µM [rising, full curve, poor fit] and the AC50 under setting [3] was 2.82 µM [rising, full curve].
Take `CN(Cc1ccco1)c1cc(-c2ccc3c(c2)OCO3)ncn1`: the max response reads like this: under setting [1], 17.4%; under setting [4], 24%. In addition, the AC50 runs as follows: under setting [2], 3.55 µM [rising, partial curve, poor fit]; under setting [3], 3.16 µM [rising, partial curve, poor fit].
As for `COc1ccc(NC(=O)N2CCC3(CC2)CCN(C(=O)c2ccncc2)CC3)cc1`, the max response worked out at 31% under setting [1] and 44.3% under setting [4]. Further, the AC50 under setting [2] is 0.316 µM [rising, full curve, poor fit] and the AC50 under setting [3] was 1 µM [rising, partial curve].
On to `O=c1c(-c2cccc(F)c2)nc2cncnc2n1Cc1ccccc1`, for which the max response was found to be 21.1% under setting [1] and 28.9% under setting [4]. For the same compound, the concentration at half-maximal activity (AC50) under setting [2] is 0.891 µM [rising, full curve] and the half-maximal activity concentration (AC50) under setting [3] was 0.794 µM [rising, full curve].
As to `COc1ccc(Oc2ncc3nc(C)c(=O)n(C4CC4)c3n2)cc1`, the max response by setting is: under setting [1], 13.8%; under setting [4], 23.3%. The AC50 runs as follows: under setting [2], 0.398 µM [rising, partial curve]; under setting [3], 0.251 µM [rising, partial curve].
As for `N#Cc1cccc(-c2cncnc2NCCc2cnc[nH]2)c1`, the max response was 60.3% under setting [1] and 68.1% under setting [4]. For the same compound, the AC50 was 15.8 µM [rising, partial curve] under setting [2] and 12.6 µM [rising, partial curve] under setting [3].
For `N#CCCn1c(=O)c(-c2cccs2)nc2cnc(Oc3ccccc3)nc21`, the max response stood at 20.3% under setting [1] and 4.86% under setting [4]. Also, the AC50 is 1.12 µM [rising, full curve] under setting [2] and 0.794 µM [rising, full curve, poor fit] under setting [3].
